Substitutions are numbered along the chain they refer to. These are yes or no findings as the source states them, for the method shown. Binding seen in cells or lysates may run through a third protein. Some binding calls cover weakened binding; strength is not graded here. For part of these data: Sequences can lack the tags named with a protein.
Experiments:
[1] = target: T1, native PRX1 of mouse liver (mouse (endogenous in C57BL/6J liver)) (UniProt P35700); experiment: co-IP; native immunoprecipitation: cleared C57BL/6J mouse liver lysate with mouse anti-PRX1 (13E7) or normal mouse IgG and sheep anti-mouse Dynabeads, overnight at 4 °C; 20 mM HEPES pH 7.4, 35 mM NaCl, 0.001% NP-40; blot with anti-fortilin and anti-PRX1
T1 sequence: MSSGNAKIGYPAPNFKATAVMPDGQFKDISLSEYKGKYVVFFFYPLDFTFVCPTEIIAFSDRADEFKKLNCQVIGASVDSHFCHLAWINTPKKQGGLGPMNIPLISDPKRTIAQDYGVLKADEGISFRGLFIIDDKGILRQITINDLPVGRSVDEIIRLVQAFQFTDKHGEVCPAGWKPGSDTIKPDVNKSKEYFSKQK

Amino acid sequences for entries named in this document (tags omitted).
UniProt Q06830: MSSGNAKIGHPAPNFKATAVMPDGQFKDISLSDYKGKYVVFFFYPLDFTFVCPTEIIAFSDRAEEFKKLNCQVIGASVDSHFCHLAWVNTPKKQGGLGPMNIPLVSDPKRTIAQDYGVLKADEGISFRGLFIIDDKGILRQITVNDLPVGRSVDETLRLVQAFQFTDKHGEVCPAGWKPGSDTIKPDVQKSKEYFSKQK
UniProt P63028: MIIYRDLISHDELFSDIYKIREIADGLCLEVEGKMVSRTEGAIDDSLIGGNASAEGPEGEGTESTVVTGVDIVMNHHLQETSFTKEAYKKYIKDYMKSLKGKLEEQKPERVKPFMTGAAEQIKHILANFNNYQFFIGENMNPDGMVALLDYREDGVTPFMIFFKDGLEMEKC

[2] = target: T2, PRX4, endogenous in wild-type U2OS cells (human (endogenous in U2OS)) (UniProt Q13162); experiment: proximity ligation; wild-type U2OS cells, fixed and permeabilized; mouse anti-fortilin (2C4) with goat anti-PRX1 or anti-PRX4; Duolink PLA probes, signal if within 30 nm
T2 sequence: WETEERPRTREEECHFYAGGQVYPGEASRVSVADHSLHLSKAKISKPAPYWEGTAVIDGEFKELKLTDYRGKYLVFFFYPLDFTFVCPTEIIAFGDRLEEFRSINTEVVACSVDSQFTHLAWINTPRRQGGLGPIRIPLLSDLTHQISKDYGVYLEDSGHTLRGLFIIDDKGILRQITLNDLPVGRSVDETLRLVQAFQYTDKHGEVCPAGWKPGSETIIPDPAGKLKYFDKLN

[3] = target: T3, peroxiredoxin-1 (PRX1), endogenous in U2OS cells (human (endogenous in U2OS)) (UniProt Q06830); experiment: as above
T3 sequence: T1 sequence with Y10H, E33D, D64E, I88V, I105V, I144V, I156T, I157L, N189Q

[4] = target: T4, HA-tagged fortilin (transfected, wild type of the point-mutant panel) (not stated (human or mouse cDNA cloned)) (UniProt P13693); experiment: co-IP; U2OS cells transfected with plasmids for HA-tagged fortilin or its point mutants; lysates subjected to co-immunoprecipitation and Western blot for PRX1
T4 sequence: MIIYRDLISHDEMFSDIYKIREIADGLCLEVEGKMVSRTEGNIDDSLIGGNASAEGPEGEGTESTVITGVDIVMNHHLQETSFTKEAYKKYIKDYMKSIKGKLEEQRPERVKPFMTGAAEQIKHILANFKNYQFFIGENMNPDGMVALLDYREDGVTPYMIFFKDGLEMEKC

[5] = target: T5, fortilin_(ΔI3R), HA-tagged (not stated (human or mouse cDNA cloned)) (UniProt P13693); experiment: as above
T5 sequence: T4 sequence with I3R

[6] = target: T6, fortilin_(ΔL7R), HA-tagged (not stated (human or mouse cDNA cloned)) (UniProt P13693); experiment: as above
T6 sequence: T4 sequence with L7R

[7] = target: T7, fortilin_(ΔR21A), HA-tagged (not stated (human or mouse cDNA cloned)) (UniProt P13693); experiment: as above
T7 sequence: T4 sequence with R21A

NQO2-HA = target: T8, NQO2-HA (UniProt P16083); experiment: co-IP; cell-based forward immunoprecipitation: cleared lysates of U2OS lines expressing HA-tagged bait on agarose-conjugated anti-HA (3F10); blot with anti-HA and anti-PRX1
T8 sequence: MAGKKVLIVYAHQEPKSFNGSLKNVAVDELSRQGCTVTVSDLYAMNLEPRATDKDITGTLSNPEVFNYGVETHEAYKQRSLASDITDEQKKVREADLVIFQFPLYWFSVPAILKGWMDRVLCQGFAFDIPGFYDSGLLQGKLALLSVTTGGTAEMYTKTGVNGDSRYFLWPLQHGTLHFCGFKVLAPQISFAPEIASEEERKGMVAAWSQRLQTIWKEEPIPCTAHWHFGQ

[8] = target: T9, fortilin tagged with the haemagglutinin (HA)-epitope at its C-terminal end (not stated (human or mouse cDNA cloned)) (UniProt P13693); experiment: as above
T9 sequence: T4 sequence

PRX1-FLAG (human) = target: T10, PRX1-FLAG (human) (UniProt Q06830); experiment: co-IP; cell-based bi-directional immunoprecipitation: cleared lysates of U2OS lines co-expressing fortilin-HA and a PRX-FLAG on anti-FLAG (M2) agarose, anti-HA agarose or bare beads, 37 °C for 4 hours; blot with anti-HA and anti-FLAG
T10 sequence: T1 sequence with Y10H, E33D, D64E, I88V, I105V, I144V, I156T, I157L, N189Q

[9] = target: T9, fortilin tagged with the haemagglutinin (HA)-epitope at its C-terminal end (not stated (human or mouse cDNA cloned)); experiment: as above

B1: native fortilin of mouse liver (protein, UniProt P63028 1-172)
chain: T4 sequence with M13L, N42A, I67V, I99L, R107K, K130N, Y159F
B1 was tested, and the binding [1] was “binds”.

B2: fortilin, endogenous in wild-type U2OS cells (protein, UniProt P13693 1-172)
chain: T4 sequence
For B2, the binding [2] was “no binding” and the binding [3] was “binds”.

B3: peroxiredoxin-1 (PRX1), endogenous in U2OS cells (protein, UniProt Q06830 1-199)
chain: T1 sequence with Y10H, E33D, D64E, I88V, I105V, I144V, I156T, I157L, N189Q
B3 was tested, and the binding [4] was “binds”, the binding [5] was “binds” and the binding [6] was “no binding”. For the same binder, the binding [7] was “binds”, the binding (NQO2-HA) was “no binding” and the binding [8] was “binds”.

B4: fortilin tagged with the haemagglutinin (HA)-epitope at its C-terminal end (protein, UniProt P13693 1-172)
chain: T4 sequence
For B4, the binding (PRX1-FLAG (human)) was “binds”.

B5: PRX1-FLAG (protein, UniProt Q06830 1-199)
chain: T1 sequence with Y10H, E33D, D64E, I88V, I105V, I144V, I156T, I157L, N189Q
With B5 the binding [9] was “binds”.

B6: PRX2-FLAG (protein, UniProt P32119 1-198)
chain: MASGNARIGKPAPDFKATAVVDGAFKEVKLSDYKGKYVVLFFYPLDFTFVCPTEIIAFSNRAEDFRKLGCEVLGVSVDSQFTHLAWINTPRKEGGLGPLNIPLLADVTRRLSEDYGVLKTDEGIAYRGLFIIDGKGVLRQITVNDLPVGRSVDEALRLVQAFQYTDEHGEVCPAGWKPGSDTIKPNVDDSKEYFSKHN
In the case of B6, the binding [9] is reported as “binds”.

B7: PRX3-FLAG (protein, UniProt P30048 62-256)
chain: APAVTQHAPYFKGTAVVNGEFKDLSLDDFKGKYLVLFFYPLDFTFVCPTEIVAFSDKANEFHDVNCEVVAVSVDSHFSHLAWINTPRKNGGLGHMNIALLSDLTKQISRDYGVLLEGSGLALRGLFIIDPNGVIKHLSVNDLPVGRSVEETLRLVKAFQYVETHGEVCPANWTPDSPTIKPSPAASKEYFQKVNQ
For B7, the binding [9] was “binds”.

B8: PRX5-FLAG (protein, UniProt P30044 53-214)
chain: MAPIKVGDAIPAVEVFEGEPGNKVNLAELFKGKKGVLFGVPGAFTPGCSKTHLPGFVEQAEALKAKGVQVVACLSVNDAFVTGEWGRAHKAEGKVRLLADPTGAFGKETDLLLDDSLVSIFGNRRLKRFSMVVQDGIVKALNVEPDGTGLTCSLAPNIISQL
With B8 the binding [9] was “binds”.

B9: PRX4-FLAG (protein, UniProt Q13162 38-271)
chain: T2 sequence
In the case of B9, the binding [9] is reported as “no binding”.

Source: PMC4698670
